Experimental data from the supplement of paper PMC5919970.
Counter-ions that a name gives are not always drawn. Whole data set: some 2,000 compounds, median “fractional viability relative to vehicle” near 0.91, cut for the lowest 2% near 0.045. Some of the results follow.

Tested on: TYKNU
Assay: fractional viability relative to vehicle; TYKNU is a high-grade serous ovarian cancer line; higher = less growth inhibition
Conditions: 72 h
Outline: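 Drug treatment lasted 72 h, with cells grown at 37 °C in 5% CO2 in RPMI 1640 supplemented with 10% FBS. Beforehand, TYKNU control cells or their lentiCRISPRv2 knockout derivatives had been seeded at 500 cells per well into drug-stamped 384-well plates carrying a ~2100-compound library at 2 or 10 μM, in duplicate. Viability came from Cell Titer Glo luminescence, with averaged duplicate treatment wells normalised to duplicate control wells in the same plate position.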

[1] = 2uM, genotype: DNM1L knockout (sgDNM1L #1)
[2] = 2uM, genotype: sgCTRLA1 (non-targeting control)
[3] = 10uM, genotype: DNM1L knockout (sgDNM1L #1)
[4] = 10uM, genotype: sgCTRLA1 (non-targeting control)

Compound | fractional viability [1] | fractional viability [2] | fractional viability [3] | fractional viability [4]
COc1ccc2c(c1)c(CC(=O)OCC(=O)O)c(C)n2C(=O)c1ccc(Cl)cc1 [Acemetacin] | 0.906 | 1.07 | 0.937 | 1.07
COc1cc2c(cc1Cc1cccc(Cl)c1F)c(=O)c(C(=O)O)cn2[C@H](CO)C(C)C [Elvitegravir (GS-9137, JTK-303)] | 0.756 | 1.03 | 0.277 | 0.257
COc1ccc2cc3[n+](cc2c1OC)CCc1cc2c(cc1-3)OCO2 [Berberine HCl] | 1.02 | 1.01 | 0.716 | 0.58
Cn1sc(=O)n(Cc2ccccc2)c1=O | 0.797 | 0.735 | 0.0256 | 0.00748
Nc1ccccc1NC(=O)c1ccc(CNc2nccc(-c3cccnc3)n2)cc1 [Mocetinostat (MGCD0103)] | 0.227 | 0.276 | 0.094 | 0.118
COc1cc(-c2cc(-c3ccc(N4CCNCC4)cc3)cnc2C)cc(OC)c1OC | 0.714 | 1.02 | 0.834 | 0.772
Cc1ccc(S(=O)(=O)/C=C/C#N)cc1 | 0.0925 | 0.0355 | 0.0225 | 0.01
CC(C)(C)OC(=O)Nc1ccc(-c2cc(C(=O)NCCCCCCC(=O)NO)no2)cc1 | 0.25 | 0.337 | 0.0725 | 0.056
CC1=C(C(=O)O)N2C(=O)[C@@H](NC(=O)[C@H](N)c3ccccc3)[C@H]2SC1 [Cephalexin] | 1.06 | 1.02 | 0.936 | 0.932
CC[C@H](C)C(=O)O[C@H]1C[C@H](O)C=C2C=C[C@H](C)[C@H](CC[C@@H](O)C[C@@H](O)CC(=O)O)[C@H]21 [Pravastatin sodium] | 1.05 | 1.18 | 0.886 | 1.03
CO[C@H]1C[C@@H]2CC[C@@H](C)[C@@](O)(O2)C(=O)C(=O)N2CCCC[C@H]2C(=O)O[C@H]([C@H](C)C[C@@H]2CC[C@H](n3cnnn3)[C@H](OC)C2)CC(=O)[C@H](C)/C=C(\C)[C@@H](O)[C@@H](OC)C(=O)[C@H](C)C[C@H](C)/C=C/C=C/C=C/1C [Zotarolimus(ABT-578)] | 0.758 | 1.08 | 0.802 | 1.16
CCCC(=O)Nc1cccc(NC(=O)c2ccccc2Br)c1 | 1.11 | 1.19 | 0.939 | 1.21
COc1cc(-c2cc(-c3cccc(O)c3)cnc2N)cc(OC)c1OC | 0.792 | 0.808 | 0.513 | 0.35
COc1cc2ncnc(Nc3ccc(O)c(Br)c3)c2cc1OC | 1.41 | 1.16 | 0.847 | 0.904
O=C(O)c1ccc(O)c2ncccc12 | 0.788 | 1.2 | 0.651 | 1.01
CC[C@@]1(O)C(=O)OCc2c1cc1n(c2=O)Cc2cc3c(CN(C)C)c(O)ccc3nc2-1 [Topotecan HCl] | 0.148 | 0.164 | 0.0758 | 0.0974
Nc1nnc(-c2cccc(Cl)c2Cl)c(N)n1 [Lamotrigine] | 1.13 | 1.28 | 0.784 | 1.13
CCOC(=O)N[C@@H]1CC[C@@H]2[C@@H](C1)C[C@H]1C(=O)O[C@H](C)[C@H]1[C@H]2/C=C/c1ccc(-c2cccc(F)c2)cn1 [Vorapaxar] | 0.79 | 0.886 | 0.79 | 0.624
Cc1cc(Nc2cc(CN3CCOCC3)c3nc(C)c(Cc4ccc(Cl)cc4F)n3n2)n[nH]1 | 0.855 | 0.975 | 0.212 | 0.338
Oc1cc(O)cc(/C=C/c2ccc(O)c(O)c2)c1 [Piceatannol] | 1.01 | 1.07 | 0.589 | 0.821
O=C(NC1CC1)c1cc(-c2cccs2)on1 [Isoxazole 9 (ISX-9)] | 0.927 | 0.844 | 0.795 | 0.662

Compound | fractional viability [1] | fractional viability [2] | fractional viability [3] | fractional viability [4]
Nc1nc(=O)[nH]cc1F [Flucytosine] | 1.06 | 1.06 | 1.06 | 0.991
CN1CCN(c2ccc(Nc3cc(-c4cccc(-n5ccc6cc(C7CC7)cc(F)c6c5=O)c4CO)cn(C)c3=O)nc2)CC1 | 0.836 | 0.97 | 0.114 | 0.182
CC(=O)O[C@]1(C(C)=O)CC[C@H]2[C@@H]3C=C(C)C4=CC(=O)CC[C@]4(C)[C@H]3CC[C@@]21C [Megestrol Acetate] | 0.975 | 1.17 | 0.874 | 1.01
C=C1[C@H](CO)[C@@H](O)C[C@@H]1n1cnc2c(=O)[nH]c(N)nc21 [Entecavir Hydrate] | 1.02 | 1.04 | 0.912 | 0.909
CN(C)C(=O)c1cc2cnc(Nc3ccc(N4CCNCC4)cn3)nc2n1C1CCCC1 | 0.781 | 0.904 | 0.6 | 0.592
S=c1[nH]cnc2nc[nH]c12 [Mercaptopurine (6-MP)] | 0.933 | 0.546 | 0.866 | 0.665
NS(=O)(=O)c1ccc(NC(=O)Nc2ccc(F)cc2)cc1 | 0.947 | 1.08 | 0.768 | 1.08
Cc1cccc(-c2[nH]ncc2-c2ccc3ncccc3n2)n1 | 0.98 | 1.1 | 0.778 | 1.03
O=C(NCCCNc1nc(Nc2cccc(NC(=O)N3CCCC3)c2)ncc1I)c1cccs1 | 0.95 | 0.92 | 0.196 | 0.279
CN(Cc1ccc(C(C)(C)C)cc1)Cc1cccc2ccccc12 [Butenafine HCl] | 1.07 | 1.2 | 0.757 | 1.1
O=C(NNc1ccccc1)c1ccncc1 | 0.723 | 0.931 | 0.801 | 0.659
Cc1nc2c(O)cccc2c(=O)[nH]1 | 0.9 | 0.902 | 0.954 | 0.856
CC(C)n1cnc2c(NCCc3ccc(O)cc3)nc(-c3csc4ccccc34)nc21 [StemRegenin 1 (SR1)] | 0.807 | 1.02 | 0.448 | 0.697
Cc1cc(F)c(Nc2ncnc3cc(OCc4ccccc4)ccc23)cc1O | 1.3 | 1.2 | 0.725 | 0.596
O=c1[nH]c(=O)n([C@H]2C[C@H](O)[C@@H](CO)O2)cc1C(F)(F)F [Trifluridine] | 0.869 | 0.969 | 0.437 | 0.386
Cn1cncc1[C@@](N)(c1ccc(Cl)cc1)c1ccc2c(c1)c(-c1cccc(Cl)c1)cc(=O)n2C [Tipifarnib] | 0.472 | 0.64 | 0.272 | 0.366
Cc1cc(C#N)cc(C)c1Oc1nc(Nc2ccc(C#N)cc2)nc(N)c1Br [Etravirine (TMC125)] | 1.05 | 1.06 | 0.352 | 0.41
NC(=O)N1c2ccccc2CC(=O)c2ccccc21 [Oxcarbazepine] | 1.03 | 1.03 | 0.734 | 0.93
NC1=NCC2c3ccccc3Cc3ccccc3N12 (centres undefined) [Epinastine HCl] | 0.782 | 0.97 | 0.686 | 0.857
Oc1nc(-c2ccc(C(F)(F)F)cc2)nc2c1CSCC2 | 1.05 | 1.19 | 0.45 | 0.746
Cc1nc2ccc(NC(=O)Nc3ccnc4cccnc34)cc2o1 | 0.722 | 0.924 | 0.803 | 0.767

Compound | fractional viability [1] | fractional viability [2] | fractional viability [3] | fractional viability [4]
CN(C)c1ccc(-c2nc3ncc(Cl)c(N4CCN(CC(=O)Nc5nccs5)CC4)c3[nH]2)cc1 | 1.15 | 0.937 | 0.395 | 0.714
O=C1N=C(O)NC1(c1ccccc1)c1ccccc1 [Phenytoin sodium] | 1.03 | 1.09 | 0.864 | 1.04
O=C1Nc2ccc(I)cc2/C1=C/c1cc(Br)c(O)c(Br)c1 | 0.939 | 1.07 | 0.891 | 0.926
CN(C)c1cc(NC(=O)CNC(C)(C)C)c(O)c2c1C[C@H]1C[C@H]3[C@H](N(C)C)C(O)=C(C(N)=O)C(=O)[C@@]3(O)C(O)=C1C2=O [Tigecycline] | 0.988 | 1.28 | 0.927 | 1.08
CCNc1nc(Nc2cc(F)c(C(=O)N3CCOCC3)cc2OC)ncc1C(F)(F)F | 0.839 | 0.914 | 0.522 | 0.542
COc1cc(NS(=O)(=O)c2ccc(N)cc2)nc(OC)n1 [Sulphadimethoxine] | 1.27 | 1.1 | 0.921 | 1.02
CC1(C)O[C@@H]2[C@@H](CO[C@@]3(COS(N)(=O)=O)OC(C)(C)O[C@@H]23)O1 [Topiramate] | 1.02 | 1.28 | 0.982 | 1.23
O=C(c1ccc(F)cc1)N1CCC[C@H](c2nc(-c3ccc(F)cc3)no2)C1 | 1.02 | 1.14 | 0.634 | 1.06
Cc1ccc(Cl)cc1N(CC(=O)Nc1c(F)cccc1F)S(C)(=O)=O | 0.71 | 0.883 | 0.706 | 0.794
Cc1c(NC(=O)OC[C@@H]2COCCN2)cn2ncnc(Nc3ccc4c(cnn4Cc4cccc(F)c4)c3)c12 | 0.969 | 1.04 | 0.516 | 0.387
Cc1ccc2nc(NCCN)c3ncc(C)n3c2c1 | 0.759 | 0.94 | 0.176 | 0.133
COc1ccc(C[C@H](NC(=O)[C@H](C)NC(=O)CN2CCOCC2)C(=O)N[C@@H](Cc2ccccc2)C(=O)[C@@]2(C)CO2)cc1 | 0.0589 | 0.0514 | 0.0565 | 0.0416
CC(C[N+](C)(C)C)OC(N)=O (centres undefined) [Bethanechol chloride] | 1.01 | 1.03 | 0.817 | 1.14
NS(=O)(=O)Cc1noc2ccccc12 [Zonisamide] | 1.1 | 1.04 | 0.981 | 1.02
COc1ccc2c(c1)C(=O)N(CCc1ccc(S(=O)(=O)NC(=O)NC3CCCCC3)cc1)C(=O)C2(C)C [Gliquidone] | 1.1 | 1.08 | 0.816 | 1
C=CCc1ccc(O)c(-c2cc(CC=C)ccc2O)c1 [Magnolol] | 1.03 | 1.09 | 0.882 | 1.01
Cc1cn([C@H]2C[C@H](N=[N+]=[N-])[C@@H](CO)O2)c(=O)[nH]c1=O [Zidovudine] | 0.952 | 1.08 | 0.851 | 0.907
COc1ccc([C@@H]2Sc3ccccc3N(CCN(C)C)C(=O)[C@@H]2OC(C)=O)cc1 [Diltiazem HCl] | 0.98 | 1.15 | 0.814 | 1.13
CC(=O)c1cc([N+](=O)[O-])c(Sc2ccc(F)cc2F)s1 | 1.02 | 1.12 | 0.288 | 0.5
